Paper PMC12136788
Some of the results follow.

T1: UNK ZnF1-6 (called full-length) (human, UniProt Q9C0B0 30-357)
T1 sequence: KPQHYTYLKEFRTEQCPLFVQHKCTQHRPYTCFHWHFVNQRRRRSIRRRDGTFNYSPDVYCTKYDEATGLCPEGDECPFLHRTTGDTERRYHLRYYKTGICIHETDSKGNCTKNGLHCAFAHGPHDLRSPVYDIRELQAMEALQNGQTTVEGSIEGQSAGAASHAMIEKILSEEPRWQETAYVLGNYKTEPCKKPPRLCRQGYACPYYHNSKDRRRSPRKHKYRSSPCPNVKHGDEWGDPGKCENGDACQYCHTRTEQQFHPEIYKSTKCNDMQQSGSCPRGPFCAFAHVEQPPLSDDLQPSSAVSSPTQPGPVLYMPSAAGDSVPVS

B1: ENSG00000056097:stop:overlap|stop_codon|ENSG00000056097|stop_codon|NA|stop_codon (ssRNA)
RNA: GGGAGUUCUACAGUCCGACGAUCAAGUCACUAUCACACUGACAUCUCCAAUUAUUCGAGAAGAGAACAUGAGGGAAGGAGGCUAGAGCUAAUGGUCUGCAGUCCUGUGUGAUUAUCAUACGCAUUCUUCGAGACCUCUGUCAGCAACAGAGGAUUGAGCAUCA
B2: chr8:102207567:102207681:-|3pUTR|ENSG00000048392|unk|total|mutant (ssRNA)
RNA: GGGAGUUCUACAGUCCGACGAUCUAUUAAUUGCAAUGAUGUUGUAAUAAAAUACUCUCAUUUCCUUAAAAUAAUUGUGAUUCCCGGUCCCCGGAUCCCGAAUCCGAUCUUUGUAUUUUUAAUGCUCCGGGGAAGAAUAUAAGUCAACAGAGGAUUGAGCAUCA
B3: ENSG00000198589:be:win_2351|CDS|ENSG00000198589|bound_else_gene|NA|bound_elsewhere_windowed (ssRNA)
RNA: GGGAGUUCUACAGUCCGACGAUCAUAAUGUGCUGUUUGAGAUUCUUAUAGAACAGAUUGGUACUCAGGUGAUACAUAAACAGCAUCCAGAUCCUGAUUCUUCAGUGAAGAUACAAAACCCUCAGAUACUAAAAGUAAUUGCGACAACAGAGGAUUGAGCAUCA
B4: ENSG00000198589:be:win_9051|3pUTR|ENSG00000198589|bound_else_gene|NA|bound_elsewhere_windowed (ssRNA)
RNA: GGGAGUUCUACAGUCCGACGAUCGUAAAUGUAAUUUAAAACAUCUCAAUUAAGUCUGUCUAUCAAUAUUGUUCUUCAAGCAUGUUUUAGACCUAGAAAAGUAUGGUUUGGGGGAGGCUAUUUUAUUGUGUGGUUAGCACAAGGCAACAGAGGAUUGAGCAUCA
B5: chr1:180199467:180199568:+|3pUTR|ENSG00000116260|msi1|FALSE|unique (ssRNA)
RNA: GGGAGUUCUACAGUCCGACGAUCCACAGGAACAAUUUCCUCAAGGAGACAGUGGCAUGGAGCUUUGAAAGACGAGUAGGUGUUAGCAAGGAAAUAAGGAGGAACGGGGGUUACGGGCAGAGGAGAAAGCACAUGCCAAGUCAGCAACAGAGGAUUGAGCAUCA
B6: chr1:111147767:111147876:+|CDS|ENSG00000134255|unk|FALSE|unique (ssRNA)
RNA: GGGAGUUCUACAGUCCGACGAUCAUUAAAUAAAUUGUUUCAGUUACCAACACCACCAUUGUCAAGACACCAACUAAAGCGGCUAGAAGAACACAGAUAUCAAAGUGCUGGACGGUCCCUGCUUGAGCCCUUAAUGCAAGGGUACAACAGAGGAUUGAGCAUCA
B7: chr4:186588032:186588133:-|3pUTR|ENSG00000083857|msi1|total|mutant (ssRNA)
RNA: GGGAGUUCUACAGUCCGACGAUCUUUUUUUACUAUAACCAGGGUUUCAUUCUGUCUUUUUCCACUGAAGUGUGACAUUUUGUCCGUACAUUUCAGUGCCGUCAUUCAUUUCCCGCUGUACACCGGAUGAAGGAGAGAUCAGAUCAACAGAGGAUUGAGCAUCA
B8: chr10:110133424:110133536:+|CDS|ENSG00000148700|unk|total|mutant (ssRNA)
RNA: GGGAGUUCUACAGUCCGACGAUCGCAUGAUGUUGAAGAUGAGCUUGCUAAGCGAGUGAGCCGGUUAAGCACAAGUACAACCACCGAAAACAUCGAGAUUACUAUUAAGUCUCCAGAGAAAAUCGAAGAAGUCCUGUCACCUGACAACAGAGGAUUGAGCAUCA
B9: ENSG00000136451:be:win_1051|CDS|ENSG00000136451|bound_else_gene|NA|bound_elsewhere_windowed (ssRNA)
RNA: GGGAGUUCUACAGUCCGACGAUCCAACAACAACAACAUGUGACAAGCUGGCCAGGGAAGCAAGUAGAAACACUGAGACUGUGGGAAGAAGCUGUUAAAGCAAGGAAGAAAGAAGCUGCUAACCUGUGCCAAACCUCCACGGCUCAACAGAGGAUUGAGCAUCA
B10: chr2:70277881:70277982:+|3pUTR|ENSG00000116005|msi1|FALSE|unique (ssRNA)
RNA: GGGAGUUCUACAGUCCGACGAUCACCUGAGGGAGAACUUAAAGACAUCUUAGUUGGGGAGUAGUCCUUUUGAAUUUUACAGCUAGAUAUAAUCUUCAGUCAGAUAAAAUUUAUGGGAGCUGGUGUCUUAUGCCUGACUCUUAGCAACAGAGGAUUGAGCAUCA
B11: chr6:105098323:105098438:-|3pUTR|ENSG00000112276|msi1|FALSE|unique (ssRNA)
RNA: GGGAGUUCUACAGUCCGACGAUCUAUCAGUGUCUCAAUGUGAAGAUUGUAACCUCAAGAUUAGGAAUCUUAAAAGAGCCACUUAGCCUGAAUGGGAAACGUGAGACUAUUUUUAAACACACACCUCUAAGGAAGAAGCCUCCCCAACAGAGGAUUGAGCAUCA
B12: chr14:23351947:23352451:-|CDS|ENSG00000092096|control|control|control (ssRNA)
RNA: GGGAGUUCUACAGUCCGACGAUCUGCCUCUGGCUGGGAGCAGCCUCCCAAUGCCAGCGGCGUCAGCGUCGCCAGCGCUGCCCUAGCAGCCAGCGCCGCCAGCCGUGUCGCCACCAGUACCGACCCCUCGUGCAGCGGCUUCGCCAACAGAGGAUUGAGCAUCA
B13: chr19:17816511:17817055:-|three_prime_utr|ENSG00000248099|control|control|control (ssRNA)
RNA: GGGAGUUCUACAGUCCGACGAUCCUACCCCAGACCAAUGCCACCUGCAGCCUGUGGAGUCAACUGCAGAAUAAAUCACACCCUAGCCCUGGCUUGGAGGAUCCCCGCUUUCACAGAUGCUGGACACUGACAGCCAAAUGUCCUCAACAGAGGAUUGAGCAUCA
B14: chr19:53353201:53353302:+|CDS|ENSG00000213799|msi1|FALSE|unique (ssRNA)
RNA: GGGAGUUCUACAGUCCGACGAUCCACAAUUCAGCCCUUGAAAUUCAUAAGGCAAUUCAUACUGGAGAAAAACCUUACAAGUGUAGUGAAUGUGGCAAGGUUUUUAAUAGAAAAGCAAACCUUUCACGUCAUCAUAGACUUCAUCAACAGAGGAUUGAGCAUCA
B15: ENSG00000182944:stop:overlap|stop_codon|ENSG00000182944|stop_codon|NA|stop_codon (ssRNA)
RNA: GGGAGUUCUACAGUCCGACGAUCGAGGACCUGGAAAAAUGGAUAAAGGCGAGCACCGUCAGGAGCGCAGAGAUCGGCCCUACUAGAUGCAGAGACCCCGCAGAGCUGCAUUGACUACCAGAUUUAUUUUUUAAACCAGAAAAUCAACAGAGGAUUGAGCAUCA
B16: chr8:23842320:23842421:-|3pUTR|ENSG00000159167|msi1|total|mutant (ssRNA)
RNA: GGGAGUUCUACAGUCCGACGAUCUAUGUAUCUACAAUACAUAUAUCUACACAUACAGAAAGAAGCAGUUCUCACAAUGUUGCCCGUUUUUUGCUUCUCUUUCCCCCACCCUACUCCCUCCAAUUCCCCCUUAAACUUCCAAAGCAACAGAGGAUUGAGCAUCA
B17: chr1:205084032:205084133:-|CDS|ENSG00000174529|msi1|FALSE|unique (ssRNA)
RNA: GGGAGUUCUACAGUCCGACGAUCGGAGACCGUCUGUGAGGUGGGCCCUGAUGGAGUGAGAAGGAAAUGUCAGACUCGGCGCUUAGAAUGUCUGACCAACUGGAUCUGUGGGAUGCUCCAUUUCACCAUUCUCAUUGGCAAGGACAACAGAGGAUUGAGCAUCA
B18: chrX:64224827:64225650:-|CDS|ENSG00000198881|control|control|control (ssRNA)
RNA: GGGAGUUCUACAGUCCGACGAUCCCUAGACCAUGGUGCAGAGGCCAACGUCAAAGCUAAACUACCAGUCUGGGCAUCAAACAUAGCUUCAUGUUCUGGCCCCCUCUAUUUGGCCGCAGUCUACGGGCACCUGGACUGUUUCCGCAACAGAGGAUUGAGCAUCA
B19: ENSG00000198589:be:win_7451|CDS|ENSG00000198589|bound_else_gene|NA|bound_elsewhere_windowed (ssRNA)
RNA: GGGAGUUCUACAGUCCGACGAUCUGAGUCCAUUGAUGUUCACAGACAAAGCCCAGCAGGAUGUUAUCAUGGUCCUCAAGUUUCCCUCCAACUCCCCUGUUACUCACGUGGCAGCCAACACCCAGCCUGGUUUGGCAACUCCCGCAACAGAGGAUUGAGCAUCA
B20: chr17:44959692:44960187:-|three_prime_utr|ENSG00000131094|control|control|control (ssRNA)
RNA: GGGAGUUCUACAGUCCGACGAUCCCCGGCCCUCCCCGGCUAUGACGCCCCCGGCCCGUGCUCAACACCGCCUGGGCCACAGCUAGGCCCUCCCACCGGCUCGCUGCAGAGCCGGGCCCAGCGCGCCCUGUCCCCGUGCCAGGGCAACAGAGGAUUGAGCAUCA
B21: chr12:29451344:29451569:-|CDS|ENSG00000187950|control|control|control (ssRNA)
RNA: GGGAGUUCUACAGUCCGACGAUCGAAGCAGAGCUAGAAAAGCCUAGAGGCUUUUUUCCCACACCACGGUAUCUACUGGAUUAUAGAGGAAGACUGGAAUGUUCUUGGGUGCUCAGAGUUUCAGCAAGCAGUAUGGCAAAAUUUCAACAGAGGAUUGAGCAUCA
B22: chr17:58089184:58089285:+|CDS_3pUTR|ENSG00000264364|msi1_unk|total|mutant (ssRNA)
RNA: GGGAGUUCUACAGUCCGACGAUCCAAAGCACUUCAUCUAUUUUUACUUGGGUCAAGUUGCAAUCCUCCUCUUCAAGUCAGGCCCGGUGGCCAUGGUGAAGGUGUCAGUGGCGGCGGCAGCGAUGGCAAGCAGGCGGCGUUGCUCAACAGAGGAUUGAGCAUCA

Molecular target: T1, UNK ZnF1-6 (called full-length)
Assay: nsRBNS (natural sequence RNA bind-n-seq); RBNS binding buffer (assumed for nsRBNS): 25 mM Tris pH 7.5, 150 mM KCl, 3 mM MgCl2, 0.01% Triton X-100, 500 ug/ml BSA, 20 U/ml SUPERase-In, 4 C; UNK is unkempt and MSI1 is Musashi-1; names of the RNAs are library labels; protein concentration not given here; high values mean tight binding

First: B1
Second: B2
The binding signal of the first is higher: 0.631 enrichment R for the first, 0.334 enrichment R for the second.

Going from B3 to B4, the binding signal rises from 0.376 enrichment R to 1.32 enrichment R.

First: B5
Second: B6
The binding signal of the first is higher: 1.51 enrichment R for the first, 0.743 enrichment R for the second.

Compared with B7, B8 is lower in binding signal: 0.542 enrichment R for the first, 0.335 enrichment R for the second.

Going from B9 to B10, the binding signal falls from 0.759 enrichment R to 0.742 enrichment R.

Compared with B11, B12 is lower in binding signal: 0.617 enrichment R for the first, 0.508 enrichment R for the second.

First: B13
Second: B14
The binding signal of the first is higher: 0.81 enrichment R for the first, 0.536 enrichment R for the second.

Going from B15 to B16, the binding signal rises from 0.593 enrichment R to 0.639 enrichment R.

First: B17
Second: B18
The binding signal of the first is higher: 0.833 enrichment R for the first, 0.674 enrichment R for the second.

Going from B19 to B20, the binding signal rises from 0.743 enrichment R to 0.865 enrichment R.

Going from B21 to B22, the binding signal rises from 0.646 enrichment R to 0.98 enrichment R.
